Results on 11 molecules are retold here after the antibiotic and cytotoxicity screens of Wong et al. (2023).

Each structure is given as a SMILES string. The list shows a part of the results.

The test concerns HSkMC (human skeletal muscle cells). As to the kind of experiment: cytotoxicity call (relative viability < 0.9). The following applies: 10 µM.
In the case of `CC(C)NC(=O)Nc1ccc2c(c1)C(=O)N([C@@H](C)CO)C[C@H](C)[C@H](CN(C)Cc1ccc(-c3ccccc3)cc1)O2`, the cytotoxicity call was “inactive”. Regarding `C[C@H]1CN([C@@H](C)CO)C(=O)c2cc(C#Cc3cccc(F)c3)cnc2O[C@@H]1CN(C)C(=O)C1CCOCC1`, the cytotoxicity call is “inactive”. Under `O=C(C[C@H]1CC[C@@H]2[C@H](COC[C@@H](O)CN2C(=O)Nc2cc(Cl)cc(Cl)c2)O1)N1CCOCC1` stands “inactive”. As for `O=C(O)c1cccnc1Nc1cccc(C(F)(F)F)c1`, the cytotoxicity call is “inactive”. Take `C[C@@H]1CN([C@H](C)CO)C(=O)c2cc(NC(=O)Nc3ccccc3)ccc2O[C@@H](C)CCCCO[C@H]1CN(C)C(=O)Cc1ccccc1`: the cytotoxicity call is “inactive”.

`C(=C\[C@@H]1Nc2ccccc2-c2nc3ccccc3n21)/c1ccccc1`: the cytotoxicity call is “inactive”. Under `COc1ncc(-c2nc(N3CCOCC3)nc3c(CN4CCC(C(C)(C)O)CC4)cc(F)cc23)cc1NS(C)(=O)=O` stands “inactive”; under `C[C@H]1CCCCO[C@H](CN(C)C(=O)Nc2ccc(C(F)(F)F)cc2)[C@@H](C)CN([C@@H](C)CO)C(=O)c2cc(NC(=O)Nc3cccc4ccccc34)ccc2O1`, “inactive”.

As for `COc1ccc(S(=O)(=O)N(C)C[C@@H]2Oc3ncc(C#CC4(O)CCCC4)cc3C(=O)N([C@H](C)CO)C[C@H]2C)cc1`, the cytotoxicity call was “inactive”. Turning to `C[C@H](CO)N1C[C@H](C)[C@@H](CN(C)C(=O)c2ccc3c(c2)OCO3)Oc2ncc(C#Cc3ccccc3F)cc2C1=O`, the cytotoxicity call is “inactive”. Under `C[C@H]1CN([C@@H](C)CO)C(=O)c2cc(NC(=O)CCCN(C)C)ccc2O[C@H]1CN(C)Cc1ccc(C(=O)O)cc1` stands “inactive”.
